# Data from the supplement of paper PMC10126150.
# Values marked as one replicate rest on one cluster of the flow cell; about a third of the high ones do not repeat.
# Tested on: ATP
# Assay: switch fluorescence ratio, 500 uM ATP over buffer (Cy3 cluster intensity, sum of 5 cycles each) (fold (ratio)); higher = stronger signal-on switching upon ATP binding; sequences stand for … in TCGTCGGCAGCGTCAGATGTGTATAAGAGACAGTTTTTTTTTTTTTTTTTTTTTTTTT…TC
# Conditions: aptamer strand: ATP DNA aptamer (quencher-CACCTGGGGGAGTATTGCGGAGGAAGG + anchor), 100 nM annealed; ATP concentration: 500 uM; one replicate
# How it was run: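 Values give the fluorescence ratio for each switch-domain sequence, averaged from per-cluster ratios of summed target-cycle to summed buffer-cycle Cy3 intensity. The Cy3-labelled switching-strand clusters sat on a modified Illumina MiSeq flow-cell, were annealed to 100 nM quencher-labelled ATP aptamer, and were imaged in selection buffer, then after 15 min with 500 uM ATP at 22 °C. Five cycles ran with NaOH stripping and re-annealing between them, and clusters outside 100-1000 RFU were excluded.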
# 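Note: ATP exposure 15 min at 22 °C before imaging.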
row,Sequence,switch fluorescence ratio
1,CAATGCGTCT,0.93
2,CATCCGCCGG,2.15
3,GCCCCTCCAT,1.1
4,GACTAGATAT,0.99
5,CCAATTCGGG,1.03
6,TAACCCAATT,1
7,ACAGTGCCCA,1.04
8,GTCTCGAATC,1.02
9,CCCTGGCTGG,0.971
10,CCGGCAGGCA,1.04
11,GTGCGAGGCT,0.992
12,TTAGCCCGGA,0.97
13,CACTGTTGGG,0.975
14,CGGGCCCTGT,1
15,GAGTGTCCAG,0.972
16,GCTTGAGATA,1.06
17,GAGGCGTTCG,0.929
18,AGGCCGTCTT,0.949
19,TTACGCAGGG,1.03
20,TCTTTCTTG,0.964
21,ACCCCTGACG,1.04
22,AAGGCACAGG,1.25
23,TTAGCGGTCC,1.03

row,Sequence,switch fluorescence ratio
1,TGTATTCCTC,1.01
2,AAATCCACC,1.03
3,TTCCTCTACG,1.42
4,CTGACAACTT,1.05
5,ACGTCTCATA,0.999
6,GAAGTTACGC,1.02
7,AGAACGCTTG,1.02
8,TCCAGTCGC,1.05
9,CGGACCCCCT,1.41
10,CCAGAAGAGC,0.979
11,CGTCGTGGTT,1.03
12,ACAAAGTAAC,1.03
13,TTTCAGGATT,0.981
14,TACCCAGAA,1
15,ACTGACACGG,1.16
16,TGTAGGAAAA,1.06
17,TTAGTGGCAA,1.36
18,CCCCCCTCGT,1.12
19,ACGTTTACTG,1.1
20,ACATGATCCG,1.13
21,GGGTGTGCTA,1.01
22,ACGCAGCCCG,1.09
23,TTAGCATACT,1.97

row,Sequence,switch fluorescence ratio
1,CGCTGTCCGG,1.01
2,TGGTGCGATT,0.969
3,TAACTTATGA,1.03
4,TGGCTTATA,1
5,GGAGTTTTGG,0.993
6,TCTTCTTGGC,1.01
7,GGTTCAATTT,0.976
8,GACTACTTAT,1.02
9,CCCTTTA,1.01
10,TTGTACGGCG,1.05
11,CACAAGTTTC,1.06
12,CAGTTTCCAC,0.984
13,AACGCAGTTT,1.19
14,AGATACGTGG,0.978
15,CACGCTGATT,1.04
16,CGGGTACATT,1.01
17,GACGTTAGC,1.07
18,GGTCAAATGT,0.993
19,CGCGACGTCT,0.985
20,CCATGGACTT,1.03
21,CGCGGAAGAC,1.84
22,TGCTTCCGTA,1.08
23,TCCGGATCTC,1.35

row,Sequence,switch fluorescence ratio
1,GTGTGGATAA,0.977
2,TCTCGCAGG,1.27
3,ATATGGGGGT,0.997
4,TAAAGATTA,0.977
5,GCAATATGCG,1.07
6,ACGCAGAATC,1.55
7,ATGGGGCAGA,1.02
8,ATCGGACGTA,1.02
9,TCGGATCAC,1.04
10,TTACCTTGCA,1.08
11,CAATTGTAAG,1.09
12,GTTTCCATTC,1.03
13,CCCGGTTAGT,0.983
14,AGCGCGGTAG,1.05
15,GCTCGAAAGG,1.01
16,GATTTCGATC,0.93
17,CGTTGACGA,0.976
18,GCGCCCCGTC,1.02
19,TTCGTAGTTA,1.04
20,AGGAACCATA,1.06
21,GGTAATGAGA,1.11
22,GGACAAAAGC,0.994
23,ATGCAACGAA,0.989

row,Sequence,switch fluorescence ratio
1,ATCATTACCT,1.21
2,GATAGATTAA,1.03
3,GATATAAAGG,0.991
4,CGCTTGTCT,1.01
5,CTAGTGTCAG,0.995
6,TTTATACGAT,0.984
7,ATAGTGTCAA,0.981
8,GCGCTACCTG,0.996
9,AGGGATCTAG,0.984
10,CGTTACAGTA,1.07
11,ATAGCACCGT,1.04
12,AAGGGCAATA,2.08
13,AGATCACGGC,0.988
14,CGTAGTAACC,1.44
15,ACTTGTGCT,0.948
16,GTTCTGCATA,1.25
17,AGAATGTACT,1
18,CAGGAGAAAC,1.09
19,CTACTACG,1.05
20,AGAGTGATTT,0.987
21,ATAGCGTTA,1.03
22,TCGGCGATTA,1.03
23,GGTCGCCATG,0.975

row,Sequence,switch fluorescence ratio
1,CAAATCGTCT,1.03
2,AGATTCATGG,0.979
3,CGTGTCGCCG,1.01
4,CAGTAGAAGA,1.01
5,ACTCATGGTA,1.08
6,TGGGAGTA,1.02
7,CGTATGCGT,0.983
8,CTCAATATGT,1.04
9,AGTCATTGGT,1.02
10,GATATCCGAT,0.97
11,GGACGCGATG,1.18
12,GAAAGACCCA,1
13,CGGCAGAATT,1.9
14,CCTTGGTACT,1.13
15,TATCTGCGT,1.02
16,TTTGGTCGG,1.01
17,TTCTAAGG,1.01
18,GCAGGTCGGG,0.974
19,GTTGATGAAA,1
20,CATGCGCTAA,2.94
21,CAGACCTTAA,1.08
22,AGCAATCCT,4.02
23,AGAGCCGCTA,1.06

row,Sequence,switch fluorescence ratio
1,TGAATCACTG,1.15
2,CTTACTACGA,1.41
3,TGAATTGCCT,1.27
4,CCTTATATCA,1.06
5,ATCGGGCACT,1.11
6,AAATAAACTC,1
7,TAGTAGAGGC,0.924
8,TGTTTTACGG,0.979
9,CATGCAAAGG,0.99
10,CGCCAAATC,1.41
11,TGGGTTTT,1.01
12,GCGCGGATAT,1.16
13,CGAGGCATTG,0.998
14,CTGACGACCA,4.47
15,GTAGGAGAAG,0.95
16,ATTTCGGAAC,1.01
17,ACCTCGCCTC,1.47
18,AGGAAGGCAT,0.936
19,GTTGGTCGCC,1.12
20,AGCTGTTTCC,1.01
